In publication PMC4336329 (PLoS ONE, 2015):
The campaign covered roughly 310,000 compounds. About 2,200 (0.71%) showed an effect of 50% or more. The effect is printed as a negative number. The list shows a part of the results.

target: human ether-à-go-go-related gene (hERG) potassium channel (human, UniProt Q12809); experiment: primary screen, population patch clamp on CHO cells stably expressing hERG
Sequence (Q12809 whole entry, looked up): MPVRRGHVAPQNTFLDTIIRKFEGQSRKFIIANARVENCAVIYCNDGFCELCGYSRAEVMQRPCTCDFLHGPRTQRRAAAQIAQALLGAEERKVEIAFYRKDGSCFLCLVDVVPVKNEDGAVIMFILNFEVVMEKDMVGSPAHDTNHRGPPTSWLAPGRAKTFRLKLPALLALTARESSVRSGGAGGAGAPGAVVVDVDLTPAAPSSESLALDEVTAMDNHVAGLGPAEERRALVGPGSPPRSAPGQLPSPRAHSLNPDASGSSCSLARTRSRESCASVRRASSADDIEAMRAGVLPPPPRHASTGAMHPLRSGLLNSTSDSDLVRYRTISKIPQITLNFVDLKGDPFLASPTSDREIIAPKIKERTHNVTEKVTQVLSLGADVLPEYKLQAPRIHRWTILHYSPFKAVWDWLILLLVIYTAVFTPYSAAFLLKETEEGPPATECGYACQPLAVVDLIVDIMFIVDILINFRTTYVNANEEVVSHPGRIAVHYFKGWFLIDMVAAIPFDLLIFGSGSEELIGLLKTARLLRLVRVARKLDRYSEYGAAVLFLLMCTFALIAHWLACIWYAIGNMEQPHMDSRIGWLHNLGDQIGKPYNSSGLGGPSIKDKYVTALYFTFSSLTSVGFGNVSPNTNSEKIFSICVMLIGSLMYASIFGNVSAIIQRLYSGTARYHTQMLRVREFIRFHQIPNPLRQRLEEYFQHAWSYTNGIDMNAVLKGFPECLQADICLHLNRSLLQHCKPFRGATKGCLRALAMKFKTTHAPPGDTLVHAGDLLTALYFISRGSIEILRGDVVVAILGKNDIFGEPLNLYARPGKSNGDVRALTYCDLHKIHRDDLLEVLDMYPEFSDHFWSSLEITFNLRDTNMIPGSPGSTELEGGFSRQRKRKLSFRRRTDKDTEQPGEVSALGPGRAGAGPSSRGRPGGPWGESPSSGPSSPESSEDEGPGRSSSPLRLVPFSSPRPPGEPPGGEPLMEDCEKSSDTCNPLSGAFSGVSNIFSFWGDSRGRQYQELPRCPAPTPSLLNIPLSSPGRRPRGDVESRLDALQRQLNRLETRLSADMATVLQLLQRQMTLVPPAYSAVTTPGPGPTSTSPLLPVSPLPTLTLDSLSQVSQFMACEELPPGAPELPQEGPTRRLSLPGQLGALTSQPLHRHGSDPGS

| SMILES | hERG current change (%, negative = inhibition) at 1uM [%] |
| --- | --- |
| Cc1ccc(S(=O)(=O)NC(=S)c2ccccc2)cc1 | 14.6 |
| C[C@@H]1C[C@H](Nc2ccccc2)c2ccccc2N1C(=O)c1cccnc1 | 7.72 |
| COc1ccc(OCc2cc(C(=O)N(C)C3CCOCC3)no2)c2ccccc12 | 10.4 |
| Cc1ccc(C)c(N(C(=O)c2snc(C(N)=O)c2N)C(C(=O)NCC2CCCO2)c2ccc(C)o2)c1 (centres unmarked) | 15 |
| CCCCC(=O)NC1(C(F)(F)F)NC(=O)N(C)C1=O (centres unmarked) | 18.7 |
| CCN(c1ccc(OC)cc1)S(=O)(=O)c1ccc2c(c1)CC(C)N2C(=O)C1CC1 (centres unmarked) | 14.6 |
| COc1ccc(OC)c2sc(N(CCCN(C)C)C(=O)c3ccc(S(=O)(=O)N4CCc5ccccc5C4)cc3)nc12.Cl | 4.33 |
| COc1ccc(/C=N/NC(=O)c2ccccc2O)cc1CSc1ccccn1 | 5.27 |
| Cc1ccc(C(=O)NNC(=O)COC(=O)COc2ccccc2C#N)cc1 | 12.7 |
| O=C(COC(=O)c1ccc[nH]c1=O)NC1CCCC1 | 11.8 |
| COCCCn1c(=NC(=O)c2ccncc2)c(C#N)cc2c(=O)n3cccc(C)c3nc21 | -53.3 |
| COc1ccccc1NC(=O)c1ccc(NC(=O)COC(=O)CCC2CCCC2)cc1 | 18.1 |
| Cc1ccccc1NC(=O)NNC(=O)CCc1ccccc1 | 13.7 |
| CCc1ccc(OCC(=O)c2c(O)c3ccccc3oc2=O)cc1 | 5.7 |
| COc1ccc(CCN(CC(=O)NC2CCCC2)C(=O)Cn2nnc(-c3ccc(C)o3)n2)cc1OC | 14.4 |
| COc1ccc(/C=N/NC(=S)Nc2cc(C(F)(F)F)ccc2Cl)cc1 | 7.19 |
| COc1cc2c(cc1OC)-c1c(OC)c(OC)cc3c1[C@H](C2)[N+](C)(C)CC3.[I-] | -1.77 |
| CCn1c(C)cc(C(=O)CN2C(=O)c3ccccc3S2(=O)=O)c1C | 7.92 |
| CSCCC(NS(=O)(=O)c1cc(C(=O)O)ccc1Cl)C(=O)O (centres unmarked) | 20.4 |
| CCOC(=O)c1ccc(NC(=O)CN(c2ccc(C)cc2)S(=O)(=O)c2c(C)nn(C)c2C)cc1 | 9.61 |
| O=C(NCc1ccc2c(c1)OCO2)C1CCC(CNS(=O)(=O)c2ccc(Cl)cc2)CC1 (centres unmarked) | -1.07 |
| CCC1COCCS(=O)(=O)N1Cc1ccc(Cl)cc1 (centres unmarked) | 2.79 |

| SMILES | hERG current change (%, negative = inhibition) at 1uM [%] |
| --- | --- |
| COc1cccc(C(=O)CSc2nnc(-c3cc(OC)cc(OC)c3)o2)c1 | -0.473 |
| N#Cc1c(Oc2ccc3ccccc3c2)sc(C(=O)c2ccccc2)c1N | 8.36 |
| COc1ccccc1OCC(=O)Nc1nc(-c2ccc(S(=O)(=O)N3CCOCC3)cc2)cs1 | 10.2 |
| COc1ccc(/C=N/NC(=O)c2cc(C34CC5CC(CC(C5)C3)C4)[nH]n2)cc1OC | 3.03 |
| CCc1ccc(CNCCc2ccc(F)cc2)cc1 | -18.2 |
| CCCCC1=NN2CCS(=O)(=O)N=C2S1 | 7 |
| COCCn1c(SCC(=O)Nc2cc(OC)ccc2OC)nc2c(c1=O)SC(C)C2 (centres unmarked) | 4.38 |
| CC(C)CC(NC(=O)c1ccccc1)C(=O)N/N=C/c1ccco1 (centres unmarked) | 11.5 |
| Cc1ccc(C(=O)N2CCN(c3ccccn3)CC2)cc1 | -6.06 |
| CCCC(c1nnnn1Cc1ccco1)N1CCN(c2ccccc2)CC1.Cl (centres unmarked) | 9.08 |
| CCOC(=O)c1c(C)n(C)c2ccc(OCC(O)CN3CCN(C)CC3)cc12.Cl (centres unmarked) | 2.81 |
| Cc1ccn2cc(-c3cccc(S(=O)(=O)N4CCCCC4)c3)nc2c1 | 13.9 |
| COc1ccc(C(=O)OCC(O)COC(=O)c2ccc(OC)cc2)cc1 | 6.51 |
| CCOC(=O)c1nc2cc3n(c(C)c-2c1C)C(C)C(C)=C3C.Cl (centres unmarked) | -13.9 |
| CCCn1c(=O)c2ccccc2n2c(SC(C)C(N)=O)nnc12 (centres unmarked) | 13.8 |
| CC(C)N(C(C)C)S(=O)(=O)c1ccc(N2CCc3ccccc3C2)nc1 | 12.1 |
| CCSc1nnc(SCC(=O)NC2CCCCC2)s1 | 11.4 |
| COc1ccc(C(C(=O)NCc2ccccc2)N(Cc2cccnc2)C(=O)c2snc(C(N)=O)c2N)cc1OC (centres unmarked) | 8.05 |
| Cc1nnc(NC(=O)CSc2ccc(-c3ccco3)nn2)s1 | 14.9 |
| CCN(CC)C(=O)C(=O)N/N=C/c1ccc(Br)cc1 | 3.35 |
| CCn1c(CC(=O)Nc2ccc(C)c(Cl)c2)nnc1SCC(=O)Nc1nc(C)cs1 | -0.588 |
| O=C1Nc2ccccc2C1=O | 3.31 |

| SMILES | hERG current change (%, negative = inhibition) at 1uM [%] |
| --- | --- |
| Cc1nc(CS(=O)c2ccc(Cl)cc2)cc(N2CCOCC2)n1 (centres unmarked) | 11.9 |
| CN(C)c1ccc(C2C3C(=O)NC(=O)C3ON2c2ccc(Cl)cc2)cc1 (centres unmarked) | -33.2 |
| O=C(COC(=O)CSc1ccc2ccccc2c1)NCc1ccc2c(c1)OCO2 | 14.5 |
| COc1ccccc1C1CC(c2c(-c3ccccc3)c3cc(Cl)ccc3[nH]c2=O)=NN1S(C)(=O)=O (centres unmarked) | 9.89 |
| N=C1S/C(=C\c2ccccc2F)C(=O)N1c1ccc(F)cc1 | 6.95 |
| CN(C)C(=O)O/N=C(\N)COc1ccc(C(C)(C)C)cc1 | 8.49 |
| CCOc1cccc(-c2c(C(=O)N/N=C/c3ccncc3)nnn2-c2nonc2N)c1 | 12.6 |
| N#Cc1ccccc1OCC(=O)OCC(=O)NC1CCCC1 | 9.47 |
| O=C(O)c1cccc(N2C(=O)c3cc([N+](=O)[O-])cc4cc([N+](=O)[O-])cc(c34)C2=O)c1 | 13.2 |
| CC(=O)N1CCN(C2=NC(=O)C(=C3CCCCC3)S2)CC1 | -2.21 |
| COc1cc2c(cc1NC(=O)CCCN1C(=O)CCC1=O)oc1ccccc12 | 13.1 |
| C=CCn1c(SCC(=O)N(C)C2CCS(=O)(=O)C2)nnc1-c1ccncc1 (centres unmarked) | 6.19 |
| CCn1c(=O)c(C(=O)Nc2ccccc2S(N)(=O)=O)c(O)c2ccccc21 | 18.7 |
| O=C(Nc1nnc(S(=O)(=O)N2CCOCC2)s1)c1ccccc1F | 21.1 |
| O=C(Nc1cccc2c1CCCC2)c1cc([N+](=O)[O-])cc([N+](=O)[O-])c1 | 10.3 |
| CN1c2ccsc2C(O)=C(C(=S)Nc2ccc(F)c(Cl)c2)S1(=O)=O | 9.27 |
| Cc1ccc(NC(=S)N(Cc2cccs2)Cc2cc3cc(C)ccc3[nH]c2=O)cc1 | 10.4 |
| CCOc1cc(CN2CCCCC2)ccc1OC | -4.33 |
| NC(=O)CSc1nnc(-c2ccc(S(=O)(=O)N3CCCC3)cc2)o1 | 8.73 |
| CCCCN(C(=O)CN1C(=O)C2CCCCC2C1=O)c1c(N)n(CCCC)c(=O)[nH]c1=O (centres unmarked) | 2.98 |
| CCN(CC)c1ccc(N=Cc2ccc(N(CC)CC)cc2O)cc1 | -5.47 |
| CCN1CCN(S(=O)(=O)c2cnc(Cl)c(Br)c2)CC1 | 37.7 |

| SMILES | hERG current change (%, negative = inhibition) at 1uM [%] |
| --- | --- |
| O=C(COc1cccc(C(F)(F)F)c1)NCC(c1ccco1)N1CCCCC1 (centres unmarked) | -3.7 |
| CC(=O)NCCc1nc2ccccc2n1CCOc1cccc(C)c1 | 5.57 |
| Nc1c(-c2ccccc2)c(CSc2nc3ccccc3[nH]2)nn1-c1ccc(Cl)cc1 | 15.9 |
| O=C(O)C1=C[C@H](c2ccc(Br)cc2)C[C@H](OCc2ccc(CO)cc2)O1 | 12 |
| CCOC(=O)[C@H]1[C@H]2COc3ccc(OC)cc3[C@@H]2N2C(=O)CN(CC3CCCO3)C(=O)[C@@]12C (some centres unmarked) | 19.7 |
| Cl.Oc1ccc(N2CCN(C(c3cccs3)c3nnnn3CCc3ccccc3)CC2)cc1 (centres unmarked) | 7.53 |
| FC(F)(F)c1cc(-c2ccccc2)nc(NCC2CCCO2)n1 (centres unmarked) | 6.04 |
| CN1C(=O)N(S(=O)(=O)c2ccc(F)c(F)c2F)C(=O)C1(C)C | 11 |
| O=C(N/N=C(/CC(=O)c1cccs1)C(F)(F)F)c1ccc(O)cc1 | 12.1 |
| COc1ccc(CC2(C)OC(c3ccc([N+](=O)[O-])cc3)=NN2C(C)=O)cc1 (centres unmarked) | -6.66 |
| Cc1ncc(CO)c(/C=N/NC(=O)c2ccc(O)cc2)c1O | -0.97 |
| O=C(c1cccs1)C1CN2CCC1CC2 (centres unmarked) | 2.16 |
| CCOC(=O)C1=C(O)C(=O)N(Cc2cccnc2)C1c1ccc(C)cc1 (centres unmarked) | 13.7 |
| O=C(/C=C/c1ccc(OC2CSC2)cc1)c1ccc(Cl)cc1 | 1.19 |
| COc1ccc(-n2c(SCC(=O)c3ccc[nH]3)nnc2-c2ccccc2)cc1 | 10.6 |
| O=S(=O)(c1cnc[nH]1)N1CCN(c2ccc(Cl)cc2)CC1 | 13.7 |
| CN(C(=O)CN1C(=O)/C(=C/c2ccc(Cl)cc2)SC1=S)C1CCS(=O)(=O)C1 (centres unmarked) | 8.21 |
| CCC(C(=O)Nc1ccc([N+](=O)[O-])cn1)c1ccccc1 (centres unmarked) | -23.5 |
| Cc1ccc(NC(=O)Cn2cccc2C2=NC(c3ccccc3)CO2)cc1C (centres unmarked) | 11.9 |
| O=[N+]([O-])c1cc(NS(=O)(=O)c2ccc(Cl)nc2)ccc1Cl | -0.66 |
